Our source for the cytotoxicity call and growth inhibition call values is the antibiotic and cytotoxicity screens of Wong et al. (2023).

The subject of one assay is HSkMC. Description: cytotoxicity call (relative viability < 0.9). The settings on record: 10 µM.
A further assay deals with S. aureus RN4220. Description: growth inhibition call (relative growth <= 0.2). To be noted: 50 µM.

Structures are written as SMILES. Some of the results follow.

In the case of `C[C@@H]1CN([C@@H](C)CO)S(=O)(=O)c2ccc(C#CCN(C)C)cc2O[C@H]1CN(C)Cc1ccccc1F`, in the assay with HSkMC, the cytotoxicity call was “inactive”. Further, the growth inhibition call in the assay with S. aureus RN4220 is “inactive”.
Consider `COc1ccc(NC(=O)Nc2ccc3c(c2)C(=O)N([C@@H](C)CO)C[C@H](C)[C@@H](CN(C)Cc2ccccc2)OCCCC[C@H](C)O3)cc1`, for which the cytotoxicity call with HSkMC was “inactive”. In addition, the growth inhibition call in the assay on S. aureus RN4220 is “inactive”.
Turning to `CC(=O)OC1CCC2(C)C(CCC3C2CCC2(C)C3CC3OC4(CCC(C)CO4)C(C)C32)C1` (stereo not given), the cytotoxicity call in the assay with HSkMC is “inactive”. Further, in the assay with S. aureus RN4220, the growth inhibition call is “inactive”.
For `C[C@@H]1CCCCO[C@H](CN(C)C(=O)Nc2ccc(C(F)(F)F)cc2)[C@H](C)CN([C@@H](C)CO)C(=O)c2cc(NC(=O)C3CCCCC3)ccc2O1`, in the assay with HSkMC, the cytotoxicity call was “inactive”. Further, the growth inhibition call in the assay with S. aureus RN4220 is “inactive”.
As for `C[C@@H]1CCCCO[C@@H](CN(C)Cc2ccc3c(c2)OCO3)[C@H](C)CN([C@H](C)CO)C(=O)c2cc(NS(=O)(=O)c3cccs3)ccc2O1`, in the assay on HSkMC (human skeletal muscle cells), the cytotoxicity call is “inactive”. In addition, the growth inhibition call with S. aureus RN4220 was “inactive”.
For the compound `COCC(=O)N(C)C[C@@H]1Oc2cc(C#C[C@@H](C)O)ccc2S(=O)(=O)N([C@H](C)CO)C[C@@H]1C`, in the assay with HSkMC, the cytotoxicity call is “inactive”. Further, the growth inhibition call with S. aureus RN4220 is “inactive”.
Consider `Cc1noc(C)c1S(=O)(=O)Nc1cccc2c1O[C@H](CN(C)Cc1ccc(C(=O)O)cc1)[C@H](C)CN([C@@H](C)CO)C2=O`, for which, in the assay with HSkMC, the cytotoxicity call was “inactive”. Besides, in the assay on S. aureus RN4220, the growth inhibition call was “inactive”.
Consider `COc1cc2c(cc1OC)Cc1cc(OC)c(OC)cc1Cc1cc(OC)c(OC)cc1C2`, for which the cytotoxicity call with HSkMC was “inactive”. For the same compound, the growth inhibition call in the assay on S. aureus RN4220 is “inactive”.
Take `C[C@@H]1CCCCO[C@@H](CN(C)C(=O)Nc2ccc3c(c2)OCO3)[C@@H](C)CN([C@@H](C)CO)C(=O)c2cc(NC(=O)Nc3ccc4c(c3)OCO4)ccc2O1`: the cytotoxicity call in the assay with HSkMC is “inactive”. Also, in the assay with S. aureus RN4220, the growth inhibition call was “inactive”.
`C[C@H]1CCCCO[C@H](CN(C)S(=O)(=O)c2cn(C)cn2)[C@@H](C)CN([C@@H](C)CO)C(=O)c2cc(NS(C)(=O)=O)ccc2O1`: the cytotoxicity call with HSkMC is “inactive”. Moreover, the growth inhibition call with S. aureus RN4220 is “inactive”.
